Experimental data published in paper PMC4336329 (PLoS ONE, 2015).
The whole screen tested about 310,000 compounds, of which about 2,200 (0.71%) showed an effect of 50% or more. Effects have a minus sign here. The list shows a part of the results.

Biological target: human ether-à-go-go-related gene (hERG) potassium channel (human, UniProt Q12809)
Assay: primary screen, population patch clamp on CHO cells stably expressing hERG

Sequence of human ether-à-go-go-related gene (hERG) potassium channel (Q12809 whole entry, looked up): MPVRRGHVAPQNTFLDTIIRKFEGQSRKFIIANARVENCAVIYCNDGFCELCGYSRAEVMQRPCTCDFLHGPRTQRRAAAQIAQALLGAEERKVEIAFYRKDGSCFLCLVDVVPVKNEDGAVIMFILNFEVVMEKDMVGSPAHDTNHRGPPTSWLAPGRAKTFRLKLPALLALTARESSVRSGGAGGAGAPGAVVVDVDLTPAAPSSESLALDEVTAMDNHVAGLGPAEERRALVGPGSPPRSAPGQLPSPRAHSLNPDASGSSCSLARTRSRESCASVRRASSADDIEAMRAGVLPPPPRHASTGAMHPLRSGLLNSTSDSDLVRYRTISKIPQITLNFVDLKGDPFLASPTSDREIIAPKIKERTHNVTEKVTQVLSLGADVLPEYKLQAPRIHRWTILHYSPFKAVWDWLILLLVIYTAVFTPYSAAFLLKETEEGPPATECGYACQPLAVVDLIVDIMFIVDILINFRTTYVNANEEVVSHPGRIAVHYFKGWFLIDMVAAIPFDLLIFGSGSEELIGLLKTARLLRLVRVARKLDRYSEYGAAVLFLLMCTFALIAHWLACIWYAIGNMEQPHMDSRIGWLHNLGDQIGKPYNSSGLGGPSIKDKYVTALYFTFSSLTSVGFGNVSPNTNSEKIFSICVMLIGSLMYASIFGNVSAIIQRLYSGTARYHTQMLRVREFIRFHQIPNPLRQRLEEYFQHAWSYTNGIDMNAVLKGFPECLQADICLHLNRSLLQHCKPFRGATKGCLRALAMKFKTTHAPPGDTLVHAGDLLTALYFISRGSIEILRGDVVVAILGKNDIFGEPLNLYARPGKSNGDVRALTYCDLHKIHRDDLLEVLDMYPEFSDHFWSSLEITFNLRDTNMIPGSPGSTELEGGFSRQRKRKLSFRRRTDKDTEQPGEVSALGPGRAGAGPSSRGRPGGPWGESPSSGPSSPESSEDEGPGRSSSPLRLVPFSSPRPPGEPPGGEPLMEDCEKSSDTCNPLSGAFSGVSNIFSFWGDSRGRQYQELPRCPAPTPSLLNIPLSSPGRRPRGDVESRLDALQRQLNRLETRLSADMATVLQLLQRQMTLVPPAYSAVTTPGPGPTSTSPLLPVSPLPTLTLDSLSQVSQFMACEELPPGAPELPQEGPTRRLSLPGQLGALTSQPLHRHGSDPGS

Structure (SMILES) | hERG current change (%, negative = inhibition) at 1uM [%]
CC(C)c1onc(C(=O)Nc2ccc3c(c2)OCO3)c1[N+](=O)[O-] | 20.8
Cc1cc(C)nc(NS(=O)(=O)c2ccc(NC(=O)Cc3ccccc3)cc2)n1 | 12.1
Cc1ccnc(SCCn2c(N3CCN(C)CC3)nc3c2c(=O)n(C)c(=O)n3C)n1 | 18.1
CC(=O)c1ccc(S(=O)(=O)N(CCCO)Cc2cc3cc(C)ccc3[nH]c2=O)cc1 | 8.77
O=C(CCc1ccccc1)N1CCN(c2ccc(F)cc2)CC1 | 6.16
COc1ccc(CC(=O)OCC(=O)N2CCCc3ccccc32)cc1 | 7.67
CC1CCCC(C)N1S(=O)(=O)c1ccc(S(=O)(=O)N2CCOCC2)cc1 (centres unmarked) | 12
CC[C@@H]1[C@H]2CCCC(=O)N3CC[C@@H](C[C@@H]1OC(=O)Nc1ccccc1)[C@@H]23 | -2.93
Clc1ccc2c(c1)C(c1ccccc1Cl)=NCc1nnc(N3CCN(CCOc4ccccc4)CC3)n1-2.O=C(O)/C=C/C(=O)O | -50.8
Cc1ccc(NC(=O)COC(=O)CCC(=O)c2cccs2)cc1S(=O)(=O)N1CCOCC1 | -6.28
CCN(C(=O)c1cnc(NC(C)C)cc1C(F)(F)F)c1ccc(Cl)cc1 | -10.7
COc1ccc(OCc2nc3c4cc(OC)c(OC)cc4nc(=S)n3[nH]2)cc1 | 7.77
Cc1cc2oc(=O)cc(CN3CCN(Cc4ccccc4)CC3)c2cc1O | -12.5
CC(/C=C/c1ccco1)=N\NC(=O)CNc1cccc(C)c1 | 7.79
CCOCCOC(=O)c1[nH]c2c(c1C)C(=O)CC(c1ccc(N(C)C)cc1)C2 (centres unmarked) | 6.95
COc1ccc(-n2c(Cc3cccs3)nnc2SCC(=O)Nc2ccc3c(c2)OCCO3)cc1 | 4.87
O=C(O)c1cc(/C=C/c2ccc(N3CCOCC3)c([N+](=O)[O-])c2)nc2ccccc12 | 5.33
CC(=O)NC(CC(=O)NNC(=O)c1cc2ccccc2cc1O)c1ccccc1 (centres unmarked) | 5.27
COC(=O)c1c(C#N)c(N)nc2c1CCCC2 | 12
COc1ccc2nc(NC(=O)Cc3cccs3)sc2c1 | 12.4
O=C(NCCc1csc(-c2cccnc2)n1)c1ccco1 | 18.2
Oc1ccc(Br)cc1/C=N/NC(=S)NCCc1ccccc1 | 11.7

Structure (SMILES) | hERG current change (%, negative = inhibition) at 1uM [%]
CNC(=O)c1cc(C(=O)c2ccc(Cl)cc2)c[nH]1 | 8.7
COC(=O)c1ccc(SCC(=O)NCc2ccccc2)c([N+](=O)[O-])c1 | 4.07
CC(C)[C@@H](C(=O)OCC(=O)Nc1ccc2c(c1)OCO2)N1C(=O)c2ccccc2C1=O | 7.75
CN(C)P(=S)(Nc1ccccc1)C(Cl)(Cl)Cl (centres unmarked) | 13.4
O=C(Nc1ccc(S(=O)(=O)N2CCc3ccccc32)cc1)C(F)(F)F | 9.42
COC(=O)c1[nH]c(C)c(/C(O)=C2\C(=O)C(=O)N(CCN3CCOCC3)C2c2cccs2)c1C (centres unmarked) | 4.55
NC(=O)CSC1=Nc2ccccc2C2=NC(c3ccccc3)C(=O)N12 (centres unmarked) | 3.8
Clc1nc2ccccc2cc1-c1nnn(-c2ccccc2)n1 | 14
COc1ccc(OCCSc2nnc(-c3ccoc3C)n2C)cc1 | -0.684
Cc1cccc(N2C(=O)N3[C@H](c4ccc(Br)cc4)[C@@H]4C(=O)N(C(C)(C)C)C(=O)[C@@H]4[C@]3(Cc3ccc(Cl)cc3)C2=O)c1 | 19.1
CC(NC(=S)Nc1ccccc1Cl)C(c1ccccc1)N1CCOCC1 (centres unmarked) | -9.49
O=S(=O)(CC(CN1CCCCC1)N1CCCCC1)c1ccccc1 (centres unmarked) | 6.73
CC/C(=C/c1ccccc1)c1cccc2[nH]c3c(OC)cccc3c12 | 16.9
COc1ccc(N=C2C(=Nc3ccc(OC)cc3)N(c3ccc(OC)cc3)C(=S)N2C)cc1 | 12
CC(=O)/C(=N\Nc1ccc(Cl)cc1Cl)Sc1cccc2cccnc12 | 15.2
COCCN(CC1CCCN(C2Cc3ccccc3C2)C1)C(=O)CSC (centres unmarked) | 7.99
N/C(=N\c1nc2c(c(=O)[nH]1)CCCC2)Nc1ccc(Oc2ccccc2)cc1 | 7.09
Cc1ccc(C)c(N2CCN(C(=O)c3ccc4nsnc4c3)CC2)c1 | 9.76
CSc1ccc(C2C(C#N)=C(N)Oc3cc4c(cc32)OCO4)cc1 (centres unmarked) | 8.84
CCCCCCCOC1(c2ccccc2)OC(=O)c2ccccc21 (centres unmarked) | 7.94
O=C1OC(c2ccccc2)=C/C1=C/c1cccs1 | 10.6
COc1cc(NC(=O)c2cc(OC)c(OC)c(OC)c2)ccc1NC(=O)c1cccs1 | -0.934

Structure (SMILES) | hERG current change (%, negative = inhibition) at 1uM [%]
CC1Sc2ccc(S(=O)(=O)N3CCC(C(=O)N4CCN(C)CC4)CC3)cc2NC1=O (centres unmarked) | 8.11
C=CCN1C(=O)C(O)(CC(=O)c2ccc(OC)cc2OC)c2cc(Br)ccc21 (centres unmarked) | 12.8
CCC1(C)CC(=O)N(c2ccc(C(=O)O)c(O)c2)C1=O (centres unmarked) | 9.26
CCOc1ccc(NC(=O)c2nsc(Cl)c2Cl)cc1 | 2.21
CCc1ccc(/C=C2\SC(=S)N(CCC(=O)Nc3cc(C)on3)C2=O)cc1 | 11.3
COc1ccc(NC(=O)CSc2ccc(-c3cccnc3)nn2)cc1 | 10.3
O=C(Nc1ccc(Oc2ccccc2)cc1)N[C@@H](Cc1ccccc1)C(=O)O | 18.7
O=C(CNC(=O)c1ccccc1)NCCO | 7.56
CC(C)(C)OC(=O)COc1cc(O)c2c(=O)cc(-c3ccccc3)oc2c1 | -8.48
O=C(NCCc1ccc(Cl)cc1)C1CC(=O)N(C2CCCCC2)C1 (centres unmarked) | 7.17
Cc1cc([N+](=O)[O-])c(NCCCCCCO)c([N+](=O)[O-])c1 | 0.379
C/C(=N\NC(=O)c1sccc1-n1cccc1)c1cccs1 | 9.02
O=C(Nc1cccc(C(F)(F)F)c1)c1cncs1 | 15.5
O=C(NC1CCCC1)C(c1ccc(N2CCOCC2)cc1)N(Cc1ccco1)C(=O)c1ccco1 (centres unmarked) | 7.2
CC(C)(C)Nc1c([N+](=O)[O-])c(=O)sc2ccccc12 | 12.1
CSc1ccc(S(=O)(=O)Nc2ccc3c(c2)NC(=O)CC3)cc1 | 2.21
O=C(/C=C/c1ccc(F)cc1)N1CCc2ccccc2C1 | 9.18
O=C(Cc1ccccc1)NCC(=O)OCC(=O)c1ccc([N+](=O)[O-])cc1 | 21.7
O=C(CSc1nnc(NC(=O)CN2CCOCC2)s1)Nc1ccccc1 | 12.4
O=C(NCCCN1CCN(CCCNC(=O)c2ccc3c(c2)OCO3)CC1)c1ccc2c(c1)OCO2 | -2.97
CCOc1ccccc1N(C(=O)c1snc(C(N)=O)c1N)C(CC)C(=O)NC1CCCC1 (centres unmarked) | 15
CCOC(=O)N1CCN(C(=O)c2c(N)no[n+]2[O-])CC1 | 10.5

Structure (SMILES) | hERG current change (%, negative = inhibition) at 1uM [%]
COc1ccc(NC(=S)Nc2cc(S(=O)(=O)N3CCCCC3)ccc2OC)cc1 | 2.47
Cc1ccc(C(=O)NCC(C)NC(=O)c2ccc(C)c(C)c2)cc1C (centres unmarked) | 14.6
COc1ccccc1N(CC(=O)NCCSc1ccccn1)S(=O)(=O)c1ccccc1 | 12.2
CC(=O)C1(c2ccccc2)CCN(C(=O)C2CCC(=O)N(CCc3cccc(F)c3)C2)CC1 (centres unmarked) | -11.6
CCN(c1cccc(C)c1)S(=O)(=O)c1cc2c3c(c1)CCN3C(=O)CC2 | 0.792
CC(=O)Nc1ccc(-c2csc(Nc3ccccn3)n2)cc1 | 11.1
Cc1cn(Cc2ccccc2)c(=O)[nH]c1=O | 6.13
Cc1ccc(S(=O)(=O)N2CCN(C(=O)COC(=O)c3ccc(Cl)nc3)CC2)c(C)c1 | 9.05
COc1ccc(S(=O)(=O)N2CC3CCCN3c3ccc(C(F)(F)F)cc32)cc1 (centres unmarked) | 7.48
CCc1ccc(S(=O)(=O)NCc2csc(-c3ccccc3)n2)s1 | 6.81
O=C(CC1CCCCC1)Nc1ccc(-c2ccc3nncn3n2)cc1 | 16.6
COC(=O)c1c(NC(=O)COC(=O)c2ccc(O)cc2)sc2c1CCCCC2 | 3.2
O=c1cc(CSc2ccc(Cl)cc2)nc(-c2ccccn2)[nH]1 | 15.4
CCCC(=O)Nc1sc(C)c(C)c1C#N | 6.12
O=C(NCCCn1ccnc1)c1ccc(Br)c(S(=O)(=O)N2CCOCC2)c1 | 10.8
O=C(Nc1ccccc1OC(=O)N1CCOCC1)N1CCOCC1 | -1.7
O=C(Cn1c(SCC(=O)NC2CCCC2)nnc1-c1ccncc1)Nc1ccc2c(c1)OCO2 | 15.4
O=C(NCCC1=CCCCC1)NC1CCCCC1 | 8.22
CNC(=O)/C=C/c1cccc(C(F)(F)F)c1 | 5.38
Clc1nc(NCc2ccco2)nc(N2CCCCC2)n1 | 23.6
